# Data reported in the supplement of paper PMC8728848.
# The other results are listed elsewhere or left out.
# B1: FedF (Escherichia coli), Q47212 (protein)
# chain: MRLKYILIIPLLLISLSVFASTLQVDKSVSYDWINSSASSAQVTGTLLGTGKTNTTQMPALYTWQHQIYNVNFIPSSSGTLTCQAGTILVWKNGRETQYALECRVSIHHSSGSINESQWGQQSQVGFGTACGNKKCRFTGFEISLRIPPNAQTYPLSSGDLKGSFSLTNKEVNWSASIYVPAIAKSYRLDTSITLPDTVNLKQNQATPVYYTFSAPSVSNTITGIPNQNDMPSSNVKLTIGPIQSKTTALYVQPDATGSWYDLSKSITMTVVKSSMLNFKGINAKPGNVTLSVPIVFEIQ
# How the values were obtained:
# Experiment in all cases: glycan array binding signal (z-score within array); higher = stronger binding
# Conditions in all cases: glycan notation: IUPAC condensed, linker removed
# Gal(a1-4)Gal(b1-4)GlcNAc = biological target: Gal(a1-4)Gal(b1-4)GlcNAc
# Procedure, shortened: (§1)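 Negative Z-scores can be read as non-binding. The Z-score is calculated within each array and then averaged across arrays of one protein sequence at different concentrations or buffers and across linkers. Arrays, 3228 in all, were curated from the Consortium for Functional Glycomics database and kept only where the protein sequence was available.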
# [1] = biological target: Gal(a1-4)Gal(b1-4)GlcNAc(b1-2)Man(a1-3)[Gal(a1-4)Gal(b1-4)GlcNAc(b1-2)Man(a1-6)]Man(b1-4)GlcNAc(b1-4)GlcNAc
# Procedure, shortened: as §1
# [2] = biological target: Gal(a1-4)Gal(b1-4)GlcNAc(b1-3)Gal(b1-4)Glc
# Procedure, shortened: as §1
# Gal(a1-4)GlcNAc = biological target: Gal(a1-4)GlcNAc
# Procedure, shortened: as §1
# Gal(a1-6)Glc = biological target: Gal(a1-6)Glc
# Procedure, shortened: as §1
# Gal(b1-2)Gal = biological target: Gal(b1-2)Gal
# Procedure, shortened: as §1
# Gal(b1-3)Gal = biological target: Gal(b1-3)Gal
# Procedure, shortened: as §1
# Gal(b1-3)Gal(b1-4)GlcNAc = biological target: Gal(b1-3)Gal(b1-4)GlcNAc
# Procedure, shortened: as §1
# [3] = biological target: Gal(b1-3)Gal(b1-4)GlcNAc(b1-2)Man(a1-3)[Gal(b1-3)Gal(b1-4)GlcNAc(b1-2)Man(a1-6)]Man(b1-4)GlcNAc(b1-4)GlcNAc
# Procedure, shortened: as §1
# Gal(b1-3)GalNAc = biological target: Gal(b1-3)GalNAc
# Procedure, shortened: as §1
# [4] = biological target: Gal(b1-3)GalNAc(a1-3)[Fuc(a1-2)]Gal(b1-4)Glc
# Procedure, shortened: as §1
# [5] = biological target: Gal(b1-3)GalNAc(a1-3)[Fuc(a1-2)]Gal(b1-4)GlcNAc
# Procedure, shortened: as §1
# [6] = biological target: Gal(b1-3)GalNAc(b1-3)Gal(a1-4)Gal(b1-4)Glc
# Procedure, shortened: as §1
# [7] = biological target: Gal(b1-3)GalNAc(b1-4)Gal(b1-4)Glc
# Procedure, shortened: as §1
# [8] = biological target: Gal(b1-3)GalNAc(b1-4)[Neu5Ac(a2-3)]Gal(b1-4)Glc
# Procedure, shortened: as §1
# Gal(b1-3)GlcNAc = biological target: Gal(b1-3)GlcNAc
# Procedure, shortened: as §1
# [9] = biological target: Gal(b1-3)GlcNAc(a1-6)Gal(b1-4)GlcNAc
# Procedure, shortened: as §1
# [10] = biological target: Gal(b1-3)GlcNAc(b1-2)Man(a1-3)[Gal(b1-3)GlcNAc(b1-2)Man(a1-6)]Man(b1-4)GlcNAc(b1-4)GlcNAc
# Procedure, shortened: as §1
# [11] = biological target: Gal(b1-3)GlcNAc(b1-2)Man(a1-3)[Gal(b1-3)GlcNAc(b1-2)Man(a1-6)]Man(b1-4)GlcNAc(b1-4)[Fuc(a1-6)]GlcNAc
# Procedure, shortened: as §1
# [12] = biological target: Gal(b1-3)GlcNAc(b1-2)[Gal(b1-3)GlcNAc(b1-6)]Man(a1-6)[Gal(b1-3)GlcNAc(b1-2)Man(a1-3)]Man(b1-4)GlcNAc(b1-4)GlcNAc
# Procedure, shortened: as §1
# [13] = biological target: Gal(b1-3)GlcNAc(b1-3)Gal(b1-3)GlcNAc
# Procedure, shortened: as §1
# [14] = biological target: Gal(b1-3)GlcNAc(b1-3)Gal(b1-4)Glc
# Procedure, shortened: as §1
# [15] = biological target: Gal(b1-3)GlcNAc(b1-3)Gal(b1-4)GlcNAc
# Procedure, shortened: as §1
# [16] = biological target: Gal(b1-3)GlcNAc(b1-3)Gal(b1-4)GlcNAc(b1-6)[Gal(b1-3)GlcNAc(b1-3)]Gal(b1-4)Glc
# Procedure, shortened: as §1
# [17] = biological target: Gal(b1-3)GlcNAc(b1-3)Gal(b1-4)[Fuc(a1-3)]GlcNAc(b1-6)[Gal(b1-3)GlcNAc(b1-3)]Gal(b1-4)Glc
# Procedure, shortened: as §1
# [18] = biological target: Gal(b1-3)GlcNAc(b1-3)GalNAc
# Procedure, shortened: as §1
# [19] = biological target: Gal(b1-3)GlcNAc(b1-6)Gal(b1-4)GlcNAc
# Procedure, shortened: as §1
# [20] = biological target: Gal(b1-3)[Fuc(a1-4)]GlcNAc
# Procedure, shortened: as §1
# [21] = biological target: Gal(b1-3)[Fuc(a1-4)]GlcNAc(b1-2)Man(a1-3)[Gal(b1-3)[Fuc(a1-4)]GlcNAc(b1-2)Man(a1-6)]Man(b1-4)GlcNAc(b1-4)GlcNAc
# Procedure, shortened: as §1
# [22] = biological target: Gal(b1-3)[Fuc(a1-4)]GlcNAc(b1-2)Man(a1-3)[Gal(b1-3)[Fuc(a1-4)]GlcNAc(b1-2)Man(a1-6)]Man(b1-4)GlcNAc(b1-4)[Fuc(a1-6)]GlcNAc
# Procedure, shortened: as §1
# [23] = biological target: Gal(b1-3)[Fuc(a1-4)]GlcNAc(b1-3)Gal(b1-3)[Fuc(a1-4)]GlcNAc
# Procedure, shortened: as §1
# [24] = biological target: Gal(b1-3)[Fuc(a1-4)]GlcNAc(b1-3)Gal(b1-4)GlcNAc
# Procedure, shortened: as §1
# [25] = biological target: Gal(b1-3)[Fuc(a1-4)]GlcNAc(b1-3)Gal(b1-4)[Fuc(a1-3)]GlcNAc
# Procedure, shortened: as §1
# [26] = biological target: Gal(b1-3)[GlcNAc(b1-6)]GalNAc
# Procedure, shortened: as §1
# [27] = biological target: Gal(b1-3)[Neu5Ac(a2-6)]GalNAc
# Procedure, shortened: as §1
# [28] = biological target: Gal(b1-3)[Neu5Ac(a2-6)]GlcNAc(b1-6)Gal(b1-4)Glc
# Procedure, shortened: as §1
# [29] = biological target: Gal(b1-3)[Neu5Ac(b2-6)]GalNAc
# Procedure, shortened: as §1
# Gal(b1-4)Gal = biological target: Gal(b1-4)Gal
# Procedure, shortened: as §1
# [30] = biological target: Gal(b1-4)GalNAc(a1-3)[Fuc(a1-2)]Gal(b1-4)GlcNAc
# Procedure, shortened: as §1
# [31] = biological target: Gal(b1-4)GalNAc(b1-3)[Fuc(a1-2)]Gal(b1-4)GlcNAc
# Procedure, shortened: as §1
# Gal(b1-4)Glc = biological target: Gal(b1-4)Glc
# Procedure, shortened: as §1
# Gal(b1-4)Glc6S = biological target: Gal(b1-4)Glc6S
# Procedure, shortened: as §1
# Gal(b1-4)GlcNAc = biological target: Gal(b1-4)GlcNAc
# Procedure, shortened: as §1
# [32] = biological target: Gal(b1-4)GlcNAc(a1-6)Gal(b1-4)GlcNAc
# Procedure, shortened: as §1
# Gal(b1-4)GlcNAc(b1-2)Man = biological target: Gal(b1-4)GlcNAc(b1-2)Man
# Procedure, shortened: as §1
binder,measurement,setting,value
B1,glycan array binding signal (z-score),Gal(a1-4)Gal(b1-4)GlcNAc,-0.257
same,glycan array binding signal (z-score),[1],0.264
same,glycan array binding signal (z-score),[2],-0.146
same,glycan array binding signal (z-score),Gal(a1-4)GlcNAc,-0.22
same,glycan array binding signal (z-score),Gal(a1-6)Glc,0.241
same,glycan array binding signal (z-score),Gal(b1-2)Gal,-0.264
same,glycan array binding signal (z-score),Gal(b1-3)Gal,0.09
same,glycan array binding signal (z-score),Gal(b1-3)Gal(b1-4)GlcNAc,-0.144
same,glycan array binding signal (z-score),[3],-0.118
same,glycan array binding signal (z-score),Gal(b1-3)GalNAc,-0.092
same,glycan array binding signal (z-score),[4],-0.185
same,glycan array binding signal (z-score),[5],-0.088
same,glycan array binding signal (z-score),[6],-0.187
same,glycan array binding signal (z-score),[7],-0.415
same,glycan array binding signal (z-score),[8],-0.287
same,glycan array binding signal (z-score),Gal(b1-3)GlcNAc,-0.291
same,glycan array binding signal (z-score),[9],-0.2
same,glycan array binding signal (z-score),[10],-0.118
same,glycan array binding signal (z-score),[11],0.741
same,glycan array binding signal (z-score),[12],-0.215
same,glycan array binding signal (z-score),[13],-0.184
same,glycan array binding signal (z-score),[14],-0.188
same,glycan array binding signal (z-score),[15],-0.439
same,glycan array binding signal (z-score),[16],-0.197
same,glycan array binding signal (z-score),[17],-0.196
same,glycan array binding signal (z-score),[18],-0.136
same,glycan array binding signal (z-score),[19],-0.181
same,glycan array binding signal (z-score),[20],-0.25
same,glycan array binding signal (z-score),[21],-0.19
same,glycan array binding signal (z-score),[22],-0.09
same,glycan array binding signal (z-score),[23],-0.049
same,glycan array binding signal (z-score),[24],-0.422
same,glycan array binding signal (z-score),[25],-0.274
same,glycan array binding signal (z-score),[26],-0.315
same,glycan array binding signal (z-score),[27],-0.211
same,glycan array binding signal (z-score),[28],0.106
same,glycan array binding signal (z-score),[29],-0.239
same,glycan array binding signal (z-score),Gal(b1-4)Gal,-0.145
same,glycan array binding signal (z-score),[30],-0.527
same,glycan array binding signal (z-score),[31],-0.484
same,glycan array binding signal (z-score),Gal(b1-4)Glc,-0.274
same,glycan array binding signal (z-score),Gal(b1-4)Glc6S,0.143
same,glycan array binding signal (z-score),Gal(b1-4)GlcNAc,-0.188
same,glycan array binding signal (z-score),[32],-0.099
same,glycan array binding signal (z-score),Gal(b1-4)GlcNAc(b1-2)Man,-0.043
